# The whole screen tested about 110,000 compounds, of which about 230 (0.21%) showed an effect of 50% or more. The list shows a part of the results.
# Molecular target: DPAP1 (Plasmodium falciparum, UniProt Q8IIJ9)
# Experiment: primary screen, percent inhibition; read by cleavage of a fluorogenic dipeptide substrate; higher = more effect of the substance
# Set-up: species or system P. falciparum D10 trophozoite lysates; single well
# 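Also: 30 min substrate incubation versus DMSO and 10 µM JCP410 controls.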
# Chain of DPAP1 (Q8IIJ9 whole entry, looked up): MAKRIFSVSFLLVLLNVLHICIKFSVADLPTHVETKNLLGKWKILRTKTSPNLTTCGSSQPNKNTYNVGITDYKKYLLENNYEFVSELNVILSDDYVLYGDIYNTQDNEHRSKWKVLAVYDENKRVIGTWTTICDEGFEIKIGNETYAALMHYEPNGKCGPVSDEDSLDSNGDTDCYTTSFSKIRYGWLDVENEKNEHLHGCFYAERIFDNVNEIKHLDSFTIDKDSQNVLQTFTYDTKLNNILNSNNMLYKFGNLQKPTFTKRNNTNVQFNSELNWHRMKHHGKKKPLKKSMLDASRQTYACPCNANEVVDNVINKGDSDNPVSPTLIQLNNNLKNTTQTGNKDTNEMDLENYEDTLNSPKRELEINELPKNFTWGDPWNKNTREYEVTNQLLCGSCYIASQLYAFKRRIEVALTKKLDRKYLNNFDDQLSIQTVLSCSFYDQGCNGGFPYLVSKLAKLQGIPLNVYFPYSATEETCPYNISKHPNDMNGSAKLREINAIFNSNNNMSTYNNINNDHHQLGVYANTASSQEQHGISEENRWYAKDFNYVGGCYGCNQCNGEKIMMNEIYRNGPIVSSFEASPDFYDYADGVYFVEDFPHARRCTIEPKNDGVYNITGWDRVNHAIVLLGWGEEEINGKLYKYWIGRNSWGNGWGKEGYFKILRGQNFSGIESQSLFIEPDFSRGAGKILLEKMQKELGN
row,SMILES,% Inhibition @ 10 uM [%]
1,Cc1c(C)n(CC(O)CNc2ccccc2)c2ccccc12 (stereo not shown),3.53
2,Cc1ccc(C)c(OCC(=O)O/N=C(\N)c2ccccn2)c1,0.487
3,CC(C)(Cl)C1Cc2cc3ccc(=O)oc3cc2O1 (stereo not shown),-2.78
4,COC(=O)c1sccc1NC(=O)c1cc(C)nc2c1c(C)nn2-c1cccc(Cl)c1C,1.15
5,COc1ccccc1CNC(=O)CN(C)S(=O)(=O)c1cccc2cccnc12,0.981
6,Cc1sc2nc(SCC(N)=O)n(-c3cccc(Cl)c3)c(=O)c2c1C,-2.64
7,Cc1nc(NC(=O)COc2ccc(C(C)(C)C)cc2)ccc1Br,-7.81
8,Cc1ccc(S(=O)(=O)Nc2ccc(OC(C)C)cc2)cc1,-2.08
9,CN(C)CCC(c1ccc(Cl)cc1)c1ccccn1 (stereo not shown),-8.57
10,COc1ccc(/C=C2\N=C(c3ccc(Br)cc3)OC2=O)cc1OC,-1.15
11,O=C(NCc1ccco1)c1ccc2c(c1)C(=O)N(CC1CCCO1)C2=O (stereo not shown),1.19
12,COC(=O)C1=CN(C)C=C(C(=O)OC)C1c1ccc(OC)c(OC)c1OC,3.47
13,Cc1ccc2c(CNCCc3ccco3)c(C(=O)O)n(C)c2c1,-10.5
14,N#CCNC(=O)[C@@H](Cc1ccccc1Cl)NC(=O)OCc1ccccc1,1.61
15,Cc1ccc(N2CC(C(=O)NC3CC3)CC2=O)cc1Cl (stereo not shown),-2.32
16,CCc1ccccc1NC(=O)COc1ccc2c(C)cc(=O)oc2c1,8.82
17,COC(=O)CCS(=O)(=O)c1ccc2ccccc2c1,0.937
18,Cc1ccc(NC(=O)CCc2ccc(S(=O)(=O)NC3CCCCC3)cc2)cc1,-1.61
19,CS(=O)(=O)N(CC(=O)N1CCC(Cc2ccccc2)CC1)c1cc(Cl)cc(Cl)c1,-2.94
20,Cc1ccnc(NC(=O)c2noc3c2CCCC3)c1,-4.97
21,CCN(CC)CCNC(=O)C12CC3CC(CC(C3)C1)C2,0.815
22,COc1cccc(COC(=O)N[C@@H](CC(C)C)C(=O)NCC#N)c1OC,-4.72
23,O=C(Cn1c(=O)c2cccn2c2cccnc21)NCCc1c[nH]c2ccccc12,-0.118
24,CC(C)=CCC[C@H](C)CCN1CCN(c2ccccc2F)CC1,-3.57
25,Fc1cccc(F)c1CN1CCN(C/C=C/c2ccccc2)CC1,1.08

row,SMILES,% Inhibition @ 10 uM [%]
1,COc1ccc(CNC(=O)C2=Cc3sc4c(c3CS2)CCC(C)C4)cc1 (stereo not shown),4.48
2,N=c1n(CCOc2ccccc2)c2ccccc2n1CCN1CCCCC1,10
3,CC(C)Cc1nnc2sc(NC(=O)COc3ccccc3F)nn12,6.32
4,CCOc1ccc(NC(=O)CC2NCCNC2=O)cc1 (stereo not shown),0.907
5,COc1ccccc1CNC(C)(C)CO,-1.43
6,CC1CN(C2CCCCCC2)CC(C)O1 (stereo not shown),1.57
7,Cc1ccsc1CC/N=c1/c(-c2ccccc2)c(O)c1=O,-6.24
8,CC1=CCC2C(=O)N(c3cccc(OCC(=O)c4ccccc4)c3)C(=O)C2C1 (stereo not shown),-2.09
9,CCOc1ccc(-c2cc(C(=O)N3CCN(C)CC3)c3ccccc3n2)cc1,4.36
10,Cc1cc(Cl)ccc1N(CC(=O)NC(C)c1ccccc1)S(C)(=O)=O (stereo not shown),-3.28
11,Cc1c(CNCc2cccc(F)c2)c(C(=O)O)c(C)n1Cc1c(F)cccc1Cl,-5.49
12,CCN(CC)c1ccc(/C=C(\C#N)C(=O)c2ccc(OC)cc2)cc1,-0.582
13,Cc1ccccc1CN(c1ccc(C(=O)NC2CC3CCC2C3)cc1)S(C)(=O)=O (stereo not shown),-11.7
14,O=C(Nc1cccc2cccnc12)C1CCCCC1,-3.41
15,Cc1ccc(C2=NS(=O)(=O)N(C)C(C(=O)NCC(C)C)=C2)cc1,0.655
16,c1ccc2c(c1)nc(N1CCOCC1)c1nnnn12,-4.03
17,CCOc1ccc(Cn2c(-c3nonc3N)nc3ccccc32)cc1OCC,0.755
18,Cc1ccc(F)cc1NC(=O)c1ccc2c(c1)OCO2,0.13
19,Cc1ccc(C/N=C/C2=C(O)c3sccc3N(Cc3ccccc3)S2(=O)=O)cc1,1.23
20,COCCCNc1nc2c(S(=O)(=O)c3ccc(C(C)C)cc3)nnn2c2ccccc12,-3.08
21,CCOC(=O)C1CCN(Cc2c(F)cccc2Cl)CC1,-4.14
22,CCCOc1cccc(C2c3c(oc4ccccc4c3=O)C(=O)N2c2nc(C)c(C(C)=O)s2)c1 (stereo not shown),-2.92
23,COc1cc(/C=C2\C(=N)N3N=C(N4CCCC4)SC3=NC2=O)ccc1O,1.72
24,CC(=O)Nc1ccc(NC=C2C(=O)NC(=O)NC2=O)cc1,-3.9
25,Cc1cc(C(=O)N2CCC(Cc3ccccc3)CC2)c2c(C)nn(-c3ccccc3)c2n1,2.12

row,SMILES,% Inhibition @ 10 uM [%]
1,CC(C)NC(=O)c1ccccc1NC(=O)c1ccco1,0.161
2,Cc1nn(CC(=O)NCCc2cccs2)c(=O)c2cccn12,-7.7
3,CC1CCC(NC(=O)c2ccc(C/N=c3/c(N4CCC(C)CC4)c(O)c3=O)cc2)CC1 (stereo not shown),2.76
4,O=CN1CCN(CCCc2ccccc2)CC1,1.62
5,O=C(O)CC(NC(=O)COc1ccc(Cl)cc1Cl)C(=O)O (stereo not shown),7.24
6,CC(C)c1ccccc1NC(=O)CCCC(=O)O,-2.77
7,CC(=O)c1ccc(NC(=O)CCC2CCCC2)cc1,0.843
8,Cc1ccc(S(=O)(=O)N(CC(=O)Nc2nc3ccccc3s2)C2CCCCC2)cc1,-4.84
9,O=C(COc1ccc2c(=O)c(Oc3ccccc3Cl)coc2c1)NC1CCCCC1,-0.0626
10,CCOC(=O)c1cccc(-c2ccc(/C=C3\C(=N)N4N=C(N5CCOCC5)SC4=NC3=O)o2)c1,-5.27
11,CCOC(=O)c1c(C)nc2ccc(Cl)cn12,2
12,CCCCNC(=O)c1nn2cc(Br)cnc2c1Br,0.215
13,Cc1nc(NCCCn2ccnc2)c2ccccc2n1,-5.98
14,O=C(O)CNc1nc2ccccc2s1,2.17
15,COc1cccc(-n2c(SCC(=O)Nc3nnc(C)s3)nnc2-c2c[nH]c3ccccc23)c1,3.55
16,Cc1cc(O)n(Cc2ccccc2)c(=O)c1C#N,2.44
17,COc1cccc(NC(=O)c2cc(OC)c(OC)c(OC)c2Br)c1,1.1
18,Cc1cc(C)nc(N2CC(=O)N=C2N)n1,0.628
19,Cc1ccc2oc(=O)c3cnn(CC(=O)Nc4ncccc4C)c3c2c1,-0.0115
20,COc1cc(/C=N/n2cnnc2-n2nc(C)cc2C)ccc1O,-1.24
21,Cc1ccc(CNC(=O)CN2C(=O)C(c3ccccc3)Oc3cccnc32)cc1 (stereo not shown),-0.677
22,COc1nc(=N)c2cc3c(=N)nc(OC)c3cc12,-1.91
23,CC(C)C[C@H](NC(=O)c1csc(-c2ccccc2N)n1)C(=O)NCC#N,-3.04
24,CC1=C(C(=O)Nc2ccc(Cl)cc2)C(c2cccnc2)n2ncnc2N1 (stereo not shown),0.528
25,CCc1[nH]nc2c1C(c1ccc(OCc3ccccc3)cc1)C(C#N)=C(N)O2 (stereo not shown),-3.63

row,SMILES,% Inhibition @ 10 uM [%]
1,Cc1ccc(NC(=O)c2ccc(C(=O)Nc3ccc(C)cc3C)cc2)c(C)c1,-6.12
2,COc1ccccc1[N+]1=C2CCCCN2C(O)(c2cccs2)C1 (stereo not shown),0.0904
3,CN1CCC(N(C)Cc2cccc([N+](=O)[O-])c2)CC1,-2.56
4,Cc1cc2nc(C)c(Cc3ccccc3)c(O)n2n1,-3.96
5,Cc1ccc(C)c(NC(=O)C2C(=O)NC3(C)CC2c2ccccc2O3)c1 (stereo not shown),-0.756
6,CCOC(=O)N1CCN(C(=O)COc2ccc(Cl)cc2C)CC1,2.43
7,CCOC(=O)N1CCN(C(=O)Cn2cnc3c(nnn3Cc3ccccc3F)c2=O)CC1,-0.431
8,Cc1ccc2cnn(CCCC(=O)NCc3ccc(F)cc3)c2c1,-2.88
9,O=C(O)c1cc(S(=O)(=O)N2CCCC2)ccc1Br,2.46
10,C=CCO/C(O)=C1/C(C)=Nc2ncnn2C1c1ccc(C)cc1 (stereo not shown),0.0842
11,CCOc1cc(C(=O)Nc2c(-c3cccs3)nc3ccccn23)cc(OCC)c1OCC,-2.74
12,O=C1c2ccccc2C(=O)N1CC(=O)n1nc(-c2ccco2)nc1NCc1cccs1,-3.24
13,CCc1ccc(CN(C(=O)c2cc(OC)c(OC)c(OC)c2)C2CCS(=O)(=O)C2)cc1 (stereo not shown),0.413
14,COc1ccc(CCNC(=O)CN(c2ccc(Cl)cc2)S(C)(=O)=O)cc1,4.11
15,Cc1ccsc1CN1C[C@@H]2C[C@H](C1)c1cccc(=O)n1C2,-0.13
16,Cn1cnc2nc3n(c2c1=O)CCC3,-4.21
17,O=C(Cn1ncn2nc(-c3cccs3)cc2c1=O)NCCc1ccc(Cl)cc1,-1.08
18,Cc1cc(C)c(S(=O)(=O)NCC(=O)NO)c(C)c1,1.24
19,COc1ccccc1CNC(=O)c1ccc(CN2CCc3ccccc3C2)cc1,2.24
20,COC(=O)c1sc(N2C(=O)c3oc4ccccc4c(=O)c3C2c2cccc(OC)c2)nc1C (stereo not shown),-0.828
21,O=C(c1ccc(NS(=O)(=O)c2cccc(Cl)c2)cc1)N1CCN(c2ccccc2)CC1,9.61
22,CCOC(=O)c1c(NC(=O)/C=C/c2cccc([N+](=O)[O-])c2)sc2c1CCCC2,-2.42
23,CCCOc1ccc(C(=O)N(Cc2ccc(C(C)C)cc2)C2CCS(=O)(=O)C2)cc1 (stereo not shown),2.1
24,O=C(c1ccc(S(=O)(=O)N2CCOCC2)cc1)N1CCN(C23CC4CC(CC(C4)C2)C3)CC1,5.38
25,CC(C)(C)NC(=O)c1cnn(-c2cccc(Cl)c2)c1C1CCN(C(=O)OC(C)(C)C)CC1,14.4
